# In article PMC13083723 (Patterns, 2026):
# Among all 5,400 compounds or so, about 190 (3.5%) showed an effect of 50% or more. The list shows a part of the results.
# Tested on: Vero-E6
# Test: primary screen, phospholipidosis by LipidTOX staining; higher = more effect of the substance
# Conditions: 10 µM
# In short: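 Single-concentration screen at 10 μM, with DMSO 0.1 v/v % and amiodarone 10 μM as controls. Read-out is LipidTOX Red phospholipid staining, which tolerates aldehyde fixation, in Vero-E6 cells.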
row,Compound,result_ITMP [%]
1,O=C(/C=C/c1ccc2ccc(C(F)(F)F)cc2n1)c1ccncc1,-2.62
2,CN1CCN(c2cccc(Nc3nc4c(-c5ccc(S(C)(=O)=O)cc5)cccn4n3)c2)CC1,28.1
3,COc1cc2nc(N3CCN(C(=O)C4CCCO4)CC3)nc(N)c2cc1OC (stereo not shown),-1.86
4,Nc1ncnc2c1c(-c1ccc(Oc3ccccc3)cc1)nn2C1CCCC1,-1.17
5,CC1CCC(NC(=O)N(CCCl)N=O)CC1 (stereo not shown),15.3
6,CN[C@@H](C)C(=O)N[C@H](C(=O)N1CCC[C@H]1C(=O)Nc1snnc1-c1ccccc1)C1CCCCC1,-3.7
7,O=C(O)C(Cc1ccccc1)NCc1ccc(Cl)cc1 (stereo not shown),-4.97
8,O=C(O)c1ccccc1NCCc1ccccc1,-4.6
9,CC(C)(O)CC[C@@H](O)[C@](C)(O)[C@H]1CC[C@@]2(O)C3=CC(=O)[C@@H]4C[C@@H](O)[C@@H](O)C[C@]4(C)[C@H]3CC[C@]12C,-4.97
10,CC(=O)[C@H]1CC[C@H]2[C@@H]3CCC4=CC(=O)CC[C@]4(C)[C@H]3[C@H](O)C[C@]12C,1.58
11,COC(=O)C(c1ccccc1)C1CCCCN1 (stereo not shown),10.3
12,CNC(=O)c1nn(C)c2c1C(C)(C)Cc1cnc(Nc3ccc(N4CCN(C)CC4)cc3)nc1-2,54.6
13,CC(=O)NC(C(=O)O)C(C)(C)SN=O (stereo not shown),-3.03
14,O=S(=O)([O-])Oc1ccc(C(c2ccc(OS(=O)(=O)[O-])cc2)c2ccccn2)cc1,-7.14
15,Nc1ccc(S(=O)(=O)Nc2ccc(Cl)nn2)cc1,-2.24
16,c1ccc(C2CN3CCSC3=N2)cc1 (stereo not shown) [R4A_0001404_001 / SPE_A46393198],3.95
17,Cc1ccc(/C=N/NC(=O)c2ccccc2Oc2ccccc2)o1,-3.82
18,C=C[C@H]1C[N@]2CC[C@H]1C[C@@H]2[C@@H](O)c1ccnc2ccc(OC)cc12,11.5
19,O=S(=O)(Cc1ccccc1)Nc1ccc(-c2ccc3c(cnn3-c3ccc(F)cc3)c2)c(C(F)(F)F)c1,-1.55
20,O=C1/C(=C\c2ccccc2)C[C@@]2(O)C3Cc4ccc(O)c5c4[C@@]2(CCN3CC2CC2)[C@H]1O5,-2.69
21,CC(C)NCCN(C(C)C)S(=O)(=O)c1ccc(Cl)cc1Cl,28.4
22,FC(F)(F)c1ccc(/C=C/c2nc(COc3ccc(CCCCn4ccnn4)cc3)co2)cc1,0.58
23,Nc1ccn(C[C@@H](CO)OCP(=O)(O)O)c(=O)n1,-10.2
24,CN1CCCC(CN2c3ccccc3Sc3ccccc32)C1 (stereo not shown),42.2
25,CCC(C)(C)C(=O)C(=O)N1CCC[C@H]1C(=O)OCCCc1cccnc1,0.06
26,O=C1c2c(O)cc(O)cc2O[C@H](c2ccc(O)c(O)c2)[C@H]1O,-4.56
27,CCCC(=O)C1(c2ccccc2)CCN(C(=O)[C@@H](Cc2ccc(OC)cc2)NC(=O)[C@@H](N)Cc2cncn2C)CC1,-0.56
28,COc1ccc(Nc2nccc(NCCO)n2)cc1,-0.65

row,Compound,result_ITMP [%]
1,CC(=O)OCC1=C(C(=O)O)N2C(=O)[C@@H](N)[C@H]2SC1,6.22
2,CN(C)CCCOc1nn(Cc2ccccc2)c2ccccc12,51.2
3,CCc1nc(C(N)=O)c(Nc2ccc(N3CCC(N4CCN(C)CC4)CC3)c(OC)c2)nc1NC1CCOCC1,1.5
4,Cn1cc(C(=O)OCC2CCN(CCNS(C)(=O)=O)CC2)c2ccccc21,0.77
5,O=C(O)COc1cccc(-c2ocnc2-c2nc(-c3ccccc3)c(-c3ccccc3)o2)c1,-2.06
6,S=C=Nc1ccc(N=C=S)cc1,-2.11
7,O=C(O)COc1nn(Cc2ccccc2)c2ccccc12,0
8,C[C@@H](CN1CCC(n2c(=O)[nH]c3cc(Cl)ccc32)CC1)NC(=O)c1ccc2ccccc2c1,41.4
9,CNS(=O)(=O)Nc1nccc(Cc2c(C)c3ccc(Oc4ncccn4)cc3oc2=O)c1F,0.77
10,CCCCCn1cc(C(=O)NC23CC4CC(CC(C4)C2)C3)c(=O)c2cc(-c3ccccc3)ccc21,-2.74
11,CCCCC(=O)O[C@]1(C(=O)CO)[C@@H](C)C[C@H]2[C@@H]3CCC4=CC(=O)C=C[C@]4(C)[C@@]3(F)[C@@H](O)C[C@@]21C,-2.17
12,CO[C@]12C[C@@H](COC(=O)c3cncc(Br)c3)CN(C)[C@@H]1Cc1cn(C)c3cccc2c13,-1.13
13,COc1cc(C(=O)N2CCOCC2)cc(OC)c1OC,-5.33
14,CC(=O)OCC(=O)[C@@]1(O)CC[C@H]2[C@@H]3CCC4=CC(=O)C=C[C@]4(C)[C@@]3(F)[C@@H](O)C[C@@]21C,-9.79
15,C=C1/C(=C/C=C2\CCC[C@]3(C)[C@@H]([C@H](C)/C=C/[C@@H](C)C(C)C)CC[C@@H]23)C[C@@H](O)C[C@@H]1O,-2.6
16,Cc1ccc(S(=O)(=O)NC2c3ccccc3Oc3ccccc32)cc1,-4.31
17,CC(C)(C)c1cc(C(=O)/C=C/c2ccc(C(=O)O)cc2)cc(C(C)(C)C)c1,-7.64
18,Cc1ccc(-c2n[nH]c3c2C(c2cccc(O)c2)N(c2ccc(C(=O)O)cc2)C3=O)cc1 (stereo not shown),0.62
19,CC(C)(C)c1ccc(CN(Cc2cccc(OCC(=O)O)c2)S(=O)(=O)c2cccnc2)cc1,-1.66
20,CC(=O)Nc1ccc(S(=O)(=O)Nc2ccc([N+](=O)[O-])cc2)cc1,4.56
21,CCC(=O)[C@@]1(C)[C@H](C)C[C@H]2[C@@H]3CCC4=CC(=O)C=C[C@]4(C)[C@H]3[C@@H](O)C[C@@]21C,-10.8
22,CCc1cc(C(N)=S)ccn1,-1.5
23,NC(Cn1ccc(=O)n(Cc2ccccc2C(=O)O)c1=O)C(=O)O (stereo not shown),-0.37
24,OCC(Br)(Br)Br,-4.8
25,COc1cc(OC)c(/C=C2/C(=O)Nc3ccccc32)c(OC)c1,2.33
26,OCc1ccc(O[C@@H]2O[C@H](CO)[C@@H](O)[C@H](O)[C@H]2O)cc1,-6.61
27,O=C(NC(NC(=S)Nc1ccc(F)c([N+](=O)[O-])c1)C(Cl)(Cl)Cl)C(c1ccccc1)c1ccccc1 (stereo not shown),38
